Measurements as given in PubChem BioAssay AID662 (National Center for Advancing Translational Sciences (NCATS), 2007).
The whole screen tested about 71,000 compounds, of which about 1,800 (2.5%) were called active. This list was built around the results that the source calls inconclusive (neither active nor inactive); the mix of calls is not that of the screen. Calls come from the whole dose curve; as a rule, active = well fitted activation curve with a large enough effect in the signal ratio, with a control signal flat (not every such curve was filed as active); inconclusive = small, poorly fitted or top-dose-only effect, or effect the other way, or a change in a side signal; inactive = flat fitted curve, though single readings scatter; the % refers to the signal ratio. Where the call is inconclusive, the potency comes from a doubtful curve fit.

Experiment: Cell signaling CRE-BLA (Fsk stim); for activity change, negative = inhibition: % of control where 0% means no effect
Conditions: CHO CRE-bla reporter (cAMP response element driving beta-lactamase), forskolin EC10, beta-lactamase ratio; activity change, negative = inhibition: at 38.2 µM (top of the series) unless noted
Summary of the method: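 CHO CRE-bla cells, overnight plating in Opti-MEM with 0.5% dialyzed FBS; cpd titration + EC10 NKH 477, 3 h 37 °C; CCF4 2 h RT; ex 405/em 460 vs 530 ratio → %Activity, AC50.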
Potency is the fitted concentration of half-maximal effect; tags give direction and shape of the fitted curve.

Structure (SMILES)	Potency	activity change, negative = inhibition
Oc1c(C(Nc2nc3ccccc3s2)c2ccco2)ccc2cccnc12 (stereo not given)	inconclusive: 20 µM [rising, single point]	
O=C(Cn1nnc(-c2ccc(Cl)cc2)n1)NCCC1=CCCCC1		inconclusive: -8.05%
C=CCn1c(SCC(=O)Nc2cccc(C)c2)nnc1-c1cnccn1	inconclusive: 5.01 µM [rising, partial curve]	
CNc1nc(OC)nc(N2CCOCC2)n1	inconclusive: 15.8 µM [rising, partial curve]	
c1ccc(C[C@@H](Nc2cccnc2)c2ccccc2)cc1		inactive: 16.8% [at 7.6 µM]
CC(C)N(Cc1nc(-c2ccccc2)no1)S(=O)(=O)c1ccccc1		inconclusive: 2.44%
O=c1c(-c2cccs2)nc2cnc(Oc3cccc(Cl)c3)nc2n1C1CC1	inconclusive: 3.98 µM [rising, full curve]	
CCC(CC)C(=O)Nc1cccc(C(=O)N2CCOCC2)c1		inconclusive: -1.32%
N#CCCn1c(=O)c(CCc2ccccc2)nc2cnc(Nc3ccccc3)nc21		inconclusive: -15.2% [fluorescent]
C#CCOC(=O)[C@H](N)CC(N)=O		inactive: -3.06% [at 7.6 µM]
O=S(=O)(O)C1CCNCC1		inactive: 0.463%
COC(=O)[C@H](CCSC)NC(=O)Nc1ccc(OC)cc1	inconclusive: 5.01 µM [rising, single point]	
COc1cc2nc(N3CCN(C(=O)OCc4ccccc4)[C@H](C(=O)NC(C)(C)C)C3)nc(N)c2cc1OC		inactive: 5.36%
COc1ccccc1NC(=O)Cn1c(=O)n2nc(C)nc2c2ccccc21	inconclusive: 10 µM [rising, single point]	
Cc1nc2cnc(N3CCN(C)CC3)nc2n(-c2ccccc2)c1=O		inconclusive: 18.9%
COc1cccc(C(=O)CSc2nnc(COc3cccc4cccnc34)o2)c1	inconclusive: 10 µM [rising, partial curve]	
O=c1[nH]nc(Sc2ncnc3sccc23)n1CCc1ccccc1	inconclusive: 1.58 µM [falling, partial curve]	
CC(C)CCNC(=O)C1C2C=CC3(CN(Cc4ccccc4Cl)C(=O)C13)O2 (stereo not given)		inactive: -13.7%
Cc1cccc(S(=O)(=O)c2c(N)n(/N=C/c3ccco3)c3nc4ccccc4nc23)c1	active: 3.98 µM	
O=C1c2ccccc2NC(c2ccc(Cl)cc2Cl)N1O (stereo not given)		inconclusive: -9.79%
COc1ccc(-c2cc(C(=O)N3CCCc4ccccc43)no2)cc1OC	inconclusive: 10 µM [rising, partial curve]	
COc1ccc(C(=O)N2CCC3(CCN(C(=O)Nc4cccc(C#N)c4)CC3)CC2)cc1		inconclusive: 16.5%
COc1cccc(C2=NOC(C(=O)Nc3cc(OC)c(OC)c(OC)c3)C2)c1 (stereo not given)	inconclusive: 12.6 µM [rising, single point]	
COCCn1c(=O)c(-c2cc(F)cc(F)c2)nc2cnc(OCc3ccccc3)nc21	inconclusive: 25.1 µM [rising, single point]	
Nc1nc(SC/C=C\c2ccccc2)c2[nH]cnc2n1		inconclusive: 19.1% [at 7.6 µM]

Structure (SMILES)	Potency	activity change, negative = inhibition
O=C(c1ccc(Cl)cc1Cl)N1CCC(c2nc3c(nnn3Cc3ccco3)c(=O)[nH]2)CC1	inconclusive: 12.6 µM [rising, partial curve]	
COc1cc(C(=O)Nc2nncs2)cc(OC)c1OC	inconclusive: 20 µM [rising, single point]	
CCn1cc(C(C)NC(=O)COc2ccc(Cl)cc2C)c(C)n1 (stereo not given)		inactive: 3.43%
CCOc1c2c(nc3ccc(Cl)cc13)CCC2	inconclusive: 10 µM [rising, single point]	
Cc1ccc2[nH]c(=O)c(CN(Cc3cccs3)Cc3nnnn3CC3CCCO3)cc2c1 (stereo not given)		inactive: 13.5%
Cn1cccc1C(=O)N1CCC[C@@]2(CCN(Cc3ccccc3)C2)C1		inactive: -19.1%
COc1cc(-c2csc(N3CCOCC3)n2)cc(OC)c1OC	inconclusive: 12.6 µM [rising, single point]	
CCOc1ccc2nc(NCCNC(=O)C(C)C)c(C)cc2c1		inactive: 10.3%
COCCn1c(-c2ccc(-c3ccccc3Cl)o2)nc2c1c(=O)[nH]c(=O)n2CC(C)C		inconclusive: 23.3%
COc1ccc2cc(C(=O)N3CCCCCC3)sc(=O)c2c1OC	inconclusive: 10 µM [rising, single point]	
COc1ccc(N2CCN(c3ccc(NC(=O)C4CCCCC4)cc3C#N)CC2)cc1		inactive: 9.5%
CCOC(=O)N1CCC(Nc2c(Nc3cccc(CC)c3)c(=O)c2=O)CC1	inconclusive: 6.31 µM [falling, partial curve]	
COCCCN1C(=O)C(=O)/C(=C(/O)c2ccc(OC(C)C)cc2)C1c1ccc(O)c(OC)c1 (stereo not given)		inconclusive: -9.49%
O=S(=O)(c1ccccc1)N1CCC[C@@]2(CCN(c3ccccc3)C2)C1		inactive: 1.57%
CCOC(=O)n1c(SCC(=O)N(CC)CC)nc2ccccc21	inconclusive: 10 µM [rising, partial curve]	
Cc1nc2ncnn2c(N2CCN(C(c3ccccc3)c3ccccc3)CC2)c1C		inconclusive: 25.1% [cytotoxic]
O=c1cc(N2CCc3ccccc3C2)[nH]c(=O)n1C1CCCCC1		inconclusive: -11.1%
c1ccc2c(c1)CCC[C@H]2C1=NCCN1		inactive: -0.651%
CC1CCCN(C(=O)c2cc3c(-c4ccc(Cl)cc4)nn(C)c3s2)C1 (stereo not given)	active: 3.16 µM	
Cc1ccc(C(=O)Nc2nccs2)cc1S(=O)(=O)N1CCCCC1		inconclusive: 22.1%
Cn1nc(-c2ccc(Cl)cc2)c2cc(C(=O)N3CCN(c4ccccn4)CC3)sc21	inconclusive: 2.51 µM [rising, partial curve]	
CN(C)C(=O)N1CCC(C(=O)NCc2ccc(F)cc2Cl)CC1		inactive: -3.14%
CCOc1ccc(OCC)c(NC(=O)C2CCN(c3ncccn3)CC2)c1		inconclusive: 29.9%
COc1ccc(Cn2nnc3c(=O)[nH]c(C(=O)NCCc4ccc(F)cc4)nc32)cc1OC		inconclusive: 17.2%
O=C(CSc1n[nH]c(-c2ccc(S(=O)(=O)N3CCCCC3)cc2)n1)Nc1nccs1		inactive: -3.11%
